# Results: the supplement of paper PMC11417369
# ± gives the standard deviation of the averaged measurements. This is one part of the list.
# Test system: PfAP2-EXP AP2 domain (GST-tagged)
# Assay: gcPBM binding intensity (ln(normalized median fluorescence intensity)); higher = stronger DNA binding
# Summary of the method: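 Binding intensity is defined as the maximum Masliner-normalised natural-log median intensity across replicate spots for either probe orientation. It was measured on an Agilent 4 × 180k array of primer-extended double-stranded 36-bp intergenic genomic probes and negative controls, to which GST-tagged P. falciparum DNA-binding domains made in E. coli were applied for 1 h in 1× PBS with 1% milk, 0.2 mg/ml BSA, 0.5% salmon testes DNA and 0.03% Triton X-100. Detection was by Alexa488 anti-GST antibody and scanning at 488 nm.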
row,Sequence,gcPBM binding intensity (ln)
1,TTCACATACAGAAACACACACATATTTATAAATTAA [CACACA_site7699],8.47 ± 0.42
2,TTTTTAATTAACTTTTTATAAATAAATAAAAATATA [GTGCAC_negctrl_site334],7.93 ± 0.42
3,AAATAATATTTATACACACACACATATTTATATACA [CACACA_site6403],8.5 ± 0.4
4,TTATTTTATTTTGAAGCATGCTTTTTGCTGTGATAA [TGCATGCA_site278],8.73 ± 0.18
5,TTATGCGTTTGCAAAAGTACATATCTATTATTTTTA [XGTACX_site7609],8.62 ± 0.5
6,GGTCTTATTTTTAGTAGTACAAATATAATATACATA [XGTACX_site6483],8.56 ± 0.4
7,TTTTTTTTTTTTTGTTGTACCCATCATATATACATA [XGTACX_site4342],8.63 ± 0.58
8,TATAAAAATATTTAATGTACGAATCTGTGATATATC [XGTACX_site7881],8.53 ± 0.42
9,TTTTCATGTTGTAAAGCATGCTTTACTCATAAAAAA [TGCATGCA_site917],8.57 ± 0.3
10,ATTATTAAAAGAAGAAGTACTTATATATTAATATTA [XGTACX_site5227],8.62 ± 0.37
11,AAAATACACGCATACACACACACACGCGCACATATA [CACACA_site6448],8.96 ± 0.36
12,ATATATTACATATGTGTGCACGTTCCAAAATTTTTA,9.37 ± 0.35
13,CTAAACAGAATTATCACACATATAAATATAAACATA [CACACA_site4560],8.45 ± 0.33
14,TATATTTATTTATATACACACACTTGTATAAAAAAT [CACACA_site2036],8.25 ± 0.44
15,TATCTATATGGGAACACACTCATAAATATATATCTA [CACACA_site4815],8.66 ± 0.48
16,TATATACAGAAACACACACACACATATATATATATA [CACACA_site2247],10.1 ± 0.29
17,TTAAATATTTTTAGAGTGCATGTAATAAAAATATAA [GTGCAC_site9414],8.91 ± 0.2
18,TATATCAAAATACATACACACATTTGTATATACATT [CACACA_site2696],8.48 ± 0.4
19,AAAATAAATAAATACACACACACGAATATATATATA [CACACA_site1683],9.78 ± 0.16
20,TTTTAAAAATAATAAATAAATAAAATTGAAGTTCCA [CACACA_negctrl_site305],8.23 ± 0.59
21,AAAATTTTTAAATATTGTACTATTTATTTTTAGCAT [XGTACX_site6190],8.55 ± 0.4
22,TATATATATATATTTACACACATTCATATAAATTCA [CACACA_site3532],9.94 ± 0.33
23,AATATGAACGGACACACACACACAAAAAAAAAAAAA [CACACA_site5154],8.28 ± 0.4

row,Sequence,gcPBM binding intensity (ln)
1,GCCTACAGACTTAGTAGTACATGAGAAGATATATAT [XGTACX_site2269],8.71 ± 0.49
2,TTTGAATATATAAATATGCACACTTCTATTATAAAT [CACACA_site3359],8.3 ± 0.18
3,TTCTTATATAAATACACACACAAAATATCTACAATG [CACACA_site4568],8.68 ± 0.38
4,TATTATTTTTCCTAATGTACAAAATATATATTTTTA [XGTACX_site2727],8.59 ± 0.38
5,TATATTAGAAGAAATTCACACATTCATGTAATCTTA [CACACA_site4706],8.07 ± 0.33
6,ATGTTGCACAATGTTACACACACAATATATATCGTT [CACACA_site4833],8.92 ± 0.28
7,AAAAAAATAAAAAGGAACGTCTATAGTTAATTTATT [CACACA_negctrl_site919],8.66 ± 0.46
8,AATCGATTGGATAATATTTTTTCTCTTAATTTTTTG [GTGCAC_negctrl_site165],8.48 ± 0.042
9,TTTTTTTTGTTGTTGTTGCACTTGATAGGAATGGCT [GTGCAC_site9701],8.68 ± 0.47
10,CCATTTACAAAAAGGAGTACACAAATATATGTTTAA [XGTACX_site649],8.46 ± 0.31
11,AAAAAAAACAGACACACACACAAATACATACACAAA [CACACA_site705],8.78 ± 0.57
12,TACTTACAGATAATAACACACAAGAAAAAAATAAAA [CACACA_site4716],8.68 ± 0.44
13,AATATTTATGGGTGCACACAAACATACAGATATATA [CACACA_site5810],9.48 ± 0.63
14,TATATATATATCAAGTGTACTTGTGTTTGTAATATT [XGTACX_site8854],9.725 ± 0.049
15,ATATAAATGTATATGACACACATATATATATATATA [CACACA_site889],9.91 ± 0.3
16,TACAAATATGGACACACACACATATTTATATTTATA [CACACA_site6420],8.65 ± 0.51
17,AAAAAACAGACATACACACACACACGGATATTTATA [CACACA_site7570],8.74 ± 0.57
18,GAATTTTTGACGATATAGGAAATAATTATCCTGAAG [XGTACX_negctrl_site61],8.48 ± 0.61
19,CTGTTAATTATATATTGTACAAAAGATATGATTATA [XGTACX_site6927],8.49 ± 0.44
20,TTTTTAAAAAAAAAAAAATAAAAAAAAAAAAAATAT [XGTACX_negctrl_site7],8.17 ± 0.54
21,ATTTATATATTTATATGTACATATCTATACATATAT [XGTACX_site7580],8.96 ± 0.42
22,TGGACCAAACGACAAAAAAAAAGCAGAAAACAAAAA [GTGCAC_negctrl_site693],8.88 ± 0.53
23,AAATAAAGAATATAAATACACACTTAAATATATATT [CACACA_site4007],8.38 ± 0.49

row,Sequence,gcPBM binding intensity (ln)
1,ATAATAAAATAAATCACACATAATATAATGTAATAT [CACACA_site6144],8.44 ± 0.3
2,ACAAAAAAATAAAATATATATATATATATAATATAT [CACACA_negctrl_site805],8.58 ± 0.16
3,TTTATATTAATTTGTGTAAATGCATATGATGAGCAT [XGTACX_negctrl_site254],8.44 ± 0.38
4,ATATATATATATATATGTACATATAATTTTTTTTTT [XGTACX_site6948],10.2 ± 0.38
5,ATAACAATTATTTATCTACACACTTTTATGTTATTT [CACACA_site7886],8.87 ± 0.42
6,TAAATTTTTTTTTTGATGCACTTAGTTATTATATTT,8.53 ± 0.36
7,AATGGCAAAATAGGCACACACACATATACAGATATA [CACACA_site4726],8.82 ± 0.63
8,AATTTTTTATACACAAGTACAAACGCGTAGTCACTT [XGTACX_site2458],8.54 ± 0.4
9,ATTCCACTGTTTTAGTGTACTGGTCGTTTTTTTTTT [XGTACX_site1738],8.66 ± 0.44
10,ATTAAGTCTTATATTACACACGACATTGTAATGTAA [CACACA_site528],8.36 ± 0.41
11,TCCAAAATATCCTTCACACACGAACAGTTTCATTTA [CACACA_site5511],8.62 ± 0.53
12,AAAAATAAAACAATTACACACATAATTTTATTTTTA [CACACA_site928],8.41 ± 0.31
13,TTTATTTTATCATTTGCACACGCACCCCCACATAAA [CACACA_site8007],10 ± 0.12
14,TTCTAAATTAATAATACACACTTGCTAAAATCATTA [CACACA_site5733],8.13 ± 0.26
15,ATATAAATAACGTGTACACACATATGTATTTATATA [CACACA_site6520],8.72 ± 0.3
16,TTCTTATATTGTACAGTACACACCTTTATAATGTTA [CACACA_site7953],9.04 ± 0.25
17,ATTCTCCATGTTTGATGTACTCATATGACGACGGAG [XGTACX_site4923],8.79 ± 0.5
18,TTTTTATGATTATACTTATATAATTTCATGATTGAA [CACACA_negctrl_site228],8.21 ± 0.38
19,AATATTTCTATATGAACATGCAATGTATCTTTTTAT [TGCATGCA_site738],8.37 ± 0.2
20,AATACTTACCAAAATACACACACACCCAAAATATAT [CACACA_site8559],8.83 ± 0.48
21,ATTTTTATTTTATATACACACAATAATACTAGAATA [CACACA_site7810],8.33 ± 0.31
22,ATTTCATATGGTCAACGTACTCATGCATCCCTCCTT [XGTACX_site437],9.13 ± 0.57
23,ATATATATCTACATATGTACATATATACATTACACA [XGTACX_site7210],8.68 ± 0.38

row,Sequence,gcPBM binding intensity (ln)
1,AGATATATAAAATATACACACAGTAATATTTATATA [CACACA_site6767],8.09 ± 0.39
2,TCAAAAAAGACACACCGTACATACTATTTGGACAGG [XGTACX_site7699],8.51 ± 0.36
3,AATTATATTTGAAATACACACATAAAAACCATATAG [CACACA_site7598],8.89 ± 0.51
4,ATATATATATATATATGTACATATTTACATTTTGTA [XGTACX_site3529],10.1 ± 0.38
5,AATAAAGGAGCCTATGAACACACACCGGTACATATA [CACACA_site9352],8.77 ± 0.3
6,TATACACATTCGCGTTGTACAAAAAAAAAAAAAAAG [XGTACX_site2880],8.53 ± 0.19
7,ATAATAATAGTAATATGTACATATATATATATATAT [XGTACX_site7437],10.2 ± 0.53
8,ATAAAAAAAAGAAAAACACACACATATATATATATA [CACACA_site8243],10.2 ± 0.16
9,AAGATGAACCTTTACACATGCAACAAAAAATATACA [TGCATGCA_site166],9.2 ± 0.3
10,ATCAACATTATGTTTAGTACTTAGTGAATTGTTAAT [XGTACX_site4913],8.6 ± 0.4
11,TTTTTTTTTTTTAGAGTACACACTTTTTTACATTTA [CACACA_site3836],8.51 ± 0.44
12,GTTGAAAATACAGAACGTACACGTTTGCCATATTGT [XGTACX_site2254],8.44 ± 0.37
13,TATGAAATGCTCCAATCACACATGAATGTAATATAT [CACACA_site5458],8.21 ± 0.42
14,ATATGATTTATAAAGTGTACCTTATTATAAGAAACA [XGTACX_site7914],8.44 ± 0.35
15,ACTTTTATTATTTATATACACACTTGCTGAAATGTT [CACACA_site3637],9.14 ± 0.45
16,AGTTATAAAATATTTGCATGTAAATATATTATCTAT [TGCATGCA_site1015],8.96 ± 0.2
17,TAATATATTATGAGGGGTACATAATATGGTTTATTG [XGTACX_site8301],8.76 ± 0.48
18,ATATTTATATTTATGTGTACATATGAAATAATTATT [XGTACX_site7765],8.53 ± 0.28
19,AATGTATTCTCTCATGCACACTTTCTTTAAGGGACC [CACACA_site5245],8.68 ± 0.26
20,CTAAGAAGTATTTACACACCAACAAGGCGAAAAAAA [CACACA_site2945],8.45 ± 0.28
